In PubChem BioAssay AID1508623 (National Center for Advancing Translational Sciences (NCATS), 2021):
Hit rate of the full screen: of about 48,000 compounds, about 450 (0.94%) were called active. Roughly 19% stayed inconclusive and do not appear here. Calls follow the shape of the dose curve; as a rule, active = well fitted inhibition curve with a large enough effect; inconclusive = small, poorly fitted or top-dose-only effect; inactive = no such curve, though single readings can be large or run the other way. The list shows a part of the results.

Test: Primary qHTS for Identification of Small Molecule Inhibitors of Huntingtin Promoter Activity; also: nearly all actives have a fitted effect of over 50% in size
Settings: HEK293 HTT promoter firefly luciferase reporter (activity 0% = vehicle and -100% = no light), 24 h; series mostly up to 57.5 µM; activity change, negative = inhibition: at the top concentration
How it was run: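 HEK293 cells carrying firefly luciferase reporters were seeded at 2,500 per well in Opti-MEM and cultured for 24 h. They were then treated with compounds at up to 57.5 uM final for 24 h at 37 degrees C before Dual-Glo luminescence readout.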
Potency is read from the fitted curve at half-maximal effect.

SMILES | activity change, negative = inhibition | Potency
Cc1ccc(Cn2c(=O)n(-c3ccccc3)c(=O)c3ccc(C(=O)NCc4ccco4)cc32)cc1 | inactive: -26.3% | 
Cn1c(SCc2ccc(F)cc2)nc2c([nH]c3ccccc32)c1=O | inactive: -0.462% | 
CCOC(=O)c1c(C)oc2nc(C)nc(N3CCN(c4ccc(C(C)=O)cc4)CC3)c12 | inactive: 1.42% | 
CC(C)(C)OC(=O)N1CCC(c2c(C(=O)NCc3ccc(F)cc3)cnn2-c2ccc(F)cc2)CC1 | inactive: -25.7% | 
COc1cccc(C(=O)N(Cc2sccc2C)C2CCS(=O)(=O)C2)c1 (stereo not given) | inactive: -9.74% | 
COc1ccc(C(=O)Nc2cc(-c3cccc(C)c3)nn2-c2ccccc2)cc1 | inactive: -29.4% | 
CCN(CC)CCNC(=O)c1sc2nc3n(c(=O)c2c1C)CCCCC3 | inactive: 1.32% | 
COc1ccc2cc3cc(C(=O)N4CCN(c5ccc(C(C)=O)cc5)CC4)sc3nc2c1Cl | inactive: -4.64% | 
O=S(=O)(NCc1nc2cccnc2n1Cc1ccc(F)cc1)c1ccc2c(c1)CCCC2 | inactive: -17.2% | 
CCCC(=O)O[C@]1(C(=O)CC)CC[C@H]2[C@@H]3CCC4=CC(=O)CC[C@]4(C)[C@H]3[C@@H](O)C[C@@]21C | inactive: -9.39% | 
CCOC(=O)c1ccc(NC(=O)c2c(NCc3cccs3)sc3c2CCCCC3)cc1 | inactive: -28.2% | 
Cc1cc(NC(=O)Cn2c(=O)nc(-c3ccccc3F)c3cc(Cl)ccc32)ccc1Br | inactive: -13% | 
CC1=C(C(=O)Nc2ccccc2C)C(c2ccncc2)n2nc(SCc3ccccc3)nc2N1 (stereo not given) | inactive: -7.26% | 
CCN1CCN(c2cc(C)c3cc(NC(=O)c4cccc(C(F)(F)F)c4)ccc3n2)CC1 | inactive: -4.62% | 
COc1cn(CC(=O)Nc2ccc(F)cc2)c(CN2CCCCC2)cc1=O | inactive: -6.26% | 
COc1cccc(CSc2nc3n(n2)C(c2cccs2)C(C(=O)Nc2ccccc2C)=C(C)N3)c1 (stereo not given) | inactive: 7.45% | 
CCOC(=O)c1c(N)n(-c2ccc(Cl)c(Cl)c2)c2nc3ccccc3nc12 | inactive: 2.42% | 
Cc1cccc(Cn2c(CN3CCC(C(=O)NCc4cccnc4)CC3)cc3ccccc32)c1 | inactive: 4.64% | 
Cc1ccc(NC(=O)Cn2c(=O)n(-c3ccc(Cl)c(Cl)c3)c(=O)c3c(C)c(C)sc32)c(C)c1 | inactive: -11.2% | 
COc1cc(OC)c(NC(=O)CCCn2nc(C)c3sc4ccccc4c3c2=O)cc1Cl | inactive: -7.11% | 
COC(=O)c1ccc(Cl)cc1NC(=O)N1CCCn2nc(C)cc21 | inactive: -3.22% | 
COc1nc(-c2ccc(C)cc2)ccc1-c1noc(-c2ccccc2Br)n1 | inactive: -4.71% | 
CCCCOC(=O)CSc1nnc(-c2ccccc2)o1 | inactive: -5.24% | 
O=c1c2cccnc2n(Cc2ccccc2F)c(=O)n1Cc1ccccc1Cl | inactive: -5.85% | 

SMILES | activity change, negative = inhibition | Potency
Cc1ccc(C)c(N2CCN(C(=O)CN3CCSc4ccc(S(=O)(=O)N(C)C)cc43)CC2)c1 | inactive: -29.5% | 
CC(=O)Nc1nonc1-c1nnc(SCC(=O)Nc2cc(C)cc(C)c2)n1C | inactive: -9.62% | 
C[C@]12CC[C@@H]3c4ccc(O)cc4CC[C@H]3[C@@H]1CCC2=O | inactive: -0.13% | 
Cc1oc2ncn(CC(C)C)c(=O)c2c1C(=O)N1CCN(c2ccc(F)cc2)CC1 | inactive: 0% | 
COc1ccccc1CNc1ccc(-c2nc(C)no2)cc1[N+](=O)[O-] | inactive: -12.9% | 
COc1ccc(-c2oc3ncn4nc(-c5ccccc5Br)nc4c3c2-c2ccc(OC)cc2)cc1 | inactive: -14.6% [at 11.5 µM] | 
COc1cccc(NC(=O)c2oc3ccccc3c2NC(=O)c2ccc(C(F)(F)F)cc2)c1 | inactive: 2.05% | 
O=C(CN1CCCN(Cc2ccc(Cl)cc2)S1(=O)=O)Nc1ccccc1F | inactive: 3.19% | 
COc1cccc2c1Oc1ncccc1N(C(=O)CCC(=O)NCc1ccc(N(C)C)cc1)C2 | inactive: -7.19% | 
COc1ccc(-n2c(=O)c3c4c(sc3n(Cc3ccccc3)c2=O)CN(C(C)=O)CC4)cc1OC | inactive: -12% | 
COc1ccccc1NC(=O)c1ccc2c(Cl)c3c(nc2c1)CCCC3 | inactive: 2.62% | 
O=C(c1cc(=O)c2cc(Cl)ccc2o1)N(Cc1ccccc1)C1CCS(=O)(=O)C1 (stereo not given) | inactive: 20% | 
Cc1nc(N2CCCC2)c2c(C(=O)Nc3cccc(Cl)c3C)c(C)oc2n1 | inactive: -12.3% | 
Cc1ccc(-n2ncc3c(NCCCc4ccccc4)ncnc32)cc1 | inactive: 5.2% | 
COc1ccc(NC(=O)CSc2nc3nc(C)c(Cc4ccc(C)cc4)c(C)n3n2)cc1OC | inactive: -25.1% | 
COc1ccc(Cl)cc1-n1nnc(-c2nc(-c3ccc4c(c3)OCO4)no2)c1C | inactive: 3.37% | 
CCCNC(=O)C1CCC(Cn2c(=O)c3sccc3n(Cc3ccccc3C)c2=O)CC1 (stereo not given) | inactive: 9.1% | 
COc1cc2[nH]c(=O)n(Cc3ccc(C(=O)NCc4ccccc4)cc3)c(=O)c2cc1OC | inactive: -13.1% | 
Cc1cccc(C)c1NC(=O)c1csc2c1CCCC2 | inactive: -10.4% | 
COc1ccccc1NC(=O)C(=O)c1cc(C)n(-c2ccccc2F)c1C | inactive: -28.8% | 
Cc1ccc(NC(=O)Nc2nnc(SCC(=O)Nc3ccc(F)cc3F)s2)cc1 | inactive: -18.6% | 
O=C(NCCCc1nc2ccccc2n1Cc1cccc(Cl)c1)c1ccco1 | inactive: -21% | 
Cc1nnc(C)n1-c1ccc(C(=O)Nc2cccc(Br)c2)cc1 | inactive: -25.2% [at 11.5 µM] | 
COCCCNC(=O)NC(CCC(C)C)c1c(-n2cccc2)sc2c1CCN(C)C2 (stereo not given) | inactive: -17% | 

SMILES | activity change, negative = inhibition | Potency
Cc1c(Cl)cccc1NC(=O)CCCn1nc(C)c2sc3ccccc3c2c1=O | inactive: -5.39% | 
CCC1CCCCN1S(=O)(=O)c1ccc(NC(=O)c2cc(=O)c3c(C)cc(C)cc3o2)cc1 (stereo not given) | inactive: 4.24% | 
Cc1cccc(Cn2cc3c(=O)n(CC(=O)Nc4c(C)cccc4C)nc-3c3cc(F)ccc32)c1 | inactive: 5.13% | 
CC(C)Sc1nc2sc3c(c2c(=O)n1Cc1ccccc1)CCCC3 | inactive: 5.61% | 
CCCCCCCCc1ccc(CCC(N)(CO)CO)cc1 | inactive: -10.7% | 
CC1(C)CC(=O)c2cc(-c3nc(-c4ccccc4)cs3)c(=O)[nH]c2C1 | inactive: 1.46% | 
Cc1ccc(NC(=O)C2CCN(S(=O)(=O)c3c(C)noc3C)CC2)cc1 | inactive: -11.9% | 
O=C(NCCN1CCN(c2ccccc2)CC1)Nc1cccc(Br)c1 | inactive: -26.8% | 
COc1ccc(Nc2nc(-c3cccc(Cl)c3)c3c(n2)-c2ccccc2OC3)cc1 | inactive: -30.7% | 
CCOc1ccc(NC(=O)CSc2nc3ccsc3c(=O)n2C(C)CC)cc1 (stereo not given) | inactive: -8.45% | 
CCOc1ccc(CCNC(=O)CCc2c(C)nc3c(c(C)nn3-c3ccc(C)c(C)c3)c2C)cc1 | inactive: -0.863% | 
Cc1cccc2c1-c1sc(C(=O)N3CCN(c4ccccc4)CC3)cc1CO2 | inactive: -0.782% | 
COc1ccc(-c2noc(N3CCC(C(=O)N4CCN(c5ccccc5OC)CC4)CC3)n2)cc1 |  | active: 12.6 µM
CCOC(=O)C=C[C@H](C[C@@H]1CCNC1=O)NC(=O)[C@@H](CC(=O)[C@@H](NC(=O)c1cc(C)on1)C(C)C)Cc1ccc(F)cc1 | inactive: 9.46% | 
CCCCNS(=O)(=O)c1ccc2nc(-c3cccnc3)cc(C(=O)NCCCOC(C)C)c2c1 | inactive: 20.9% | 
CCOc1cccc(Nc2nn(-c3ccc(OC(F)(F)F)cc3)nc2C(C)=O)c1 | inactive: -0.236% | 
CCOC(=O)c1cnc2c(C)c(Cl)ccc2c1NCCc1ccc(OC)c(OC)c1 | inactive: -30.6% | 
Cc1ccc(N(CC(=O)NCCc2ccccc2C)S(=O)(=O)N(C)C)cc1 | inactive: -11.9% | 
CCOC(=O)c1ccc(NC(=O)C2CC(=O)NC(=Nc3ccc(C)c(C)c3)S2)cc1 (stereo not given) | inactive: -28.2% | 
COc1ccccc1CNC(=O)Cn1c(=O)oc2cc(S(=O)(=O)N3CCCC3)ccc21 | inactive: -39.7% | 
CCCCN(C)CCNC(=O)c1ccc(Cn2c(=O)[nH]c3cc(OC)c(OC)cc3c2=O)cc1 | inactive: -2.52% | 
COc1cc(-c2nc(S(=O)(=O)c3ccc(Br)cc3)c(N3CCOCC3)o2)cc(OC)c1OC | inactive: -6.52% | 
COc1ccc(Br)cc1C(=O)Nc1cccc2ccc(C)nc12 | inactive: -12.6% | 
CCc1nc2nc(C)cc(Nc3cc(Cl)ccc3C)n2n1 | inactive: -29.5% | 

SMILES | activity change, negative = inhibition | Potency
CCc1ccc(CNC(=O)c2ccc3c(Cl)c4c(nc3c2)CCCC4)cc1 | inactive: -2.45% | 
Cc1cc(N2CCN(c3cccc(C)c3C)CC2)n2cnnc2n1 | inactive: -6.82% | 
CCOC(=O)c1cnn(-c2ccc(C(=O)Nc3ccc(OC(F)(F)F)cc3)cc2)c1N | inactive: -14.9% | 
CC(=O)Nc1ccc(NC(=O)C2CCCN(S(=O)(=O)c3ccc4c(c3)CCCC(=O)N4)C2)cc1 (stereo not given) | inactive: -0.281% | 
COc1ccc(Cl)cc1NC(=O)Cn1ncc2c3ccccc3n(C)c2c1=O | inactive: -23.4% | 
CCCN(Cc1cccs1)C(=O)Nc1cc(Cl)ccc1C | inactive: 3.82% | 
Cc1nn(CC(=O)NCc2ccc(F)cc2)c2ccccc12 | inactive: -0.323% | 
CCCCCCCCCCCCCCNCCO | inactive: -9.17% | 
Cc1ccc2[nH]c3c(=O)n(CC(=O)NCc4ccco4)ncc3c2c1 | inactive: 0.892% | 
O=C(NCc1ccc(Cl)cc1)c1ccc2c(Cl)c3c(nc2c1)CCCC3 | inactive: -5.99% | 
Cc1ccc(C)c(N2CCN(C(=O)CCC(=O)Nc3ccc4nc(N5CCCCC5)cc(C)c4c3)CC2)c1 | inactive: -24.5% | 
Cc1ccc(OCCSc2nnc(-c3cccs3)o2)cc1Cl | inactive: -19.8% [at 11.5 µM] | 
CCOC(=O)c1cccc(NC(=O)CCCn2nc(C)c3c(C)n(-c4ccccc4)nc3c2=O)c1 | inactive: 5.67% | 
CC(=O)Nc1ccc(NC(=O)C2CCN(c3c(NC(C)=O)c(C)nn3-c3ccccc3)CC2)cc1 | inactive: 33.6% | 
CCOC(=O)c1ccc2nc(C)cc(Nc3cccc(C(=O)O)c3)c2c1 | inactive: -5.38% | 
COc1ccc(Cl)cc1-n1nnc(-c2nc(-c3ccccc3)no2)c1C | inactive: 9.45% | 
Cn1c(SCC(=O)Nc2ccccc2)nnc1-c1ccccc1 | inactive: -11.6% | 
COc1ccc(-c2nc3cc(C(C)C)ccc3o2)cc1NC(=O)c1ccccc1[N+](=O)[O-] | inactive: -11.9% | 
CCOc1ccccc1CNC(=O)CCn1c(=O)c2cccn2c2ccc(F)cc21 | inactive: -9.33% | 
COc1ccc2c(c1)c(=O)c(C(=O)c1ccc(C)c(C)c1)cn2CC(=O)Nc1ccc2c(c1)OCCO2 | inactive: -7.26% | 
Cc1ccc(CNc2nc(-c3ccco3)nn2S(C)(=O)=O)cc1 | inactive: 62.7% | 
Cc1ccc(Cn2c(CN3CCC(C(=O)NCc4ccccc4C)CC3)cc3ccccc32)cc1 | inactive: -10.5% | 
COc1ccc(NC(=O)C2COc3ccccc3C2)cc1Cl (stereo not given) | inactive: -12.6% | 
